ChEMBL document CHEMBL1201862, “PubChem BioAssay data set” (2004)
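Each compound was tested at five concentrations against cells in 96-well plates for 48 hours. At the GI50, growth is halved.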 Calls of active or inactive are those of the source. Rule as the data show it: active = GI50 up to about 1.1 µM and inactive = higher. Peptide text beside a SMILES is read from it. * marks the point of attachment. Boc = CC(C)(C)OC(=O)*; tBu = CC(C)(C)*

System: NCI-H322M
Assay: inhibition of tumour cell growth, NCI panel, 48 h

Row | Compound | GI50
1 | O=C(/C=C/c1ccc(F)c(F)c1)OCCc1ccccc1 | inactive: > 100 µM
2 | Nc1c(Cl)ncnc1N[C@@H]1C[C@H]1CO | inactive: > 100 µM
3 | O=C(c1ccccc1)c1c(-c2ccccc2)n(-c2ccccc2)[nH]c(=O)c1=O | inactive: 79.6 µM
4 | COC(=O)c1ccccc1C1CN=NC12Cc1c(C)cccc1C2=O (configuration not stated) | inactive: > 100 µM
5 | O=C1/C(=C/c2ccc([N+](=O)[O-])cc2)Sc2scc(-c3cccc([N+](=O)[O-])c3)[n+]21 | inactive: 17 µM
6 | CC(OC(C)(C)C)C(NC(=O)C(N)CCCCNC(=O)OC(C)(C)C)C(=O)NC(Cc1ccccc1)C(=O)O (configuration not stated) (H-Lys(Boc)-Thr(tBu)-Phe-OH; configuration not given here) | inactive: > 100 µM
7 | Cc1ccc2nc(NC(=O)C(=O)C3C(=O)NC(=S)NC3=O)sc2c1 | inactive: > 100 µM
8 | Cc1ccc2c(=O)c(-c3nnc(N)s3)c[nH]c2n1 | inactive: > 100 µM
9 | CCOC(=O)CC/C(=N/Nc1ccc(Cl)cc1[N+](=O)[O-])C(=O)OCC | inactive: > 100 µM
10 | CCOC(=O)Cn1c(C(F)(F)F)nc2nc(Cl)c(Cl)nc21 | inactive: 19.5 µM
11 | Cc1cc2c(cc1-c1cc3c(cc1C)C(C(C)C)=C(O)C(=O)/C3=C\NCC1CCCN3CCCCC13)/C(=C/NCC1CCCN3CCCCC13)C(=O)C(O)=C2C(C)C (configuration not stated) | inactive: 5.66 µM
12 | COc1cc([C@H]2OC[C@H]3[C@@H]2CO[C@@H]3c2cc(OC)c3c(c2)OCO3)cc(OC)c1OC | inactive: > 100 µM
13 | CNC(=O)c1cc(NC(=O)N(CCC#N)CCN(C(=O)N[C@@H](Cc2ccccc2)C(=O)N[C@@H](CC(C)C)C(=O)NC)c2ccccc2)ccc1OC | inactive: > 87.3 µM
14 | CC(=O)NNc1nc(C)c(C(=O)NNC(=O)C(=O)Nc2c(C)cccc2C(C)(C)C)s1 | inactive: > 100 µM
15 | CN1C(=O)N(C)C(N2CCCC2)c2c1nc1ccccn1c2=O (configuration not stated) | inactive: 91.2 µM
16 | N#CC12Cc3cc4c(cc3-c3cccc(c31)CCN2C(=O)c1ccccc1)OCO4 (configuration not stated) | inactive: > 100 µM
17 | COC(=O)CCCC(=O)O | inactive: > 100 µM
18 | CC1(C)CC[C@]2(C(=O)O)CC[C@]3(C)C(=CCC4=C5C[C@H](O)[C@H](O)[C@@](C)(CO)[C@@]5(C)CC[C@]43C)[C@@H]2C1 | inactive: 36.1 µM
19 | CC(=O)OC1/C(=C/c2ccc([N+](=O)[O-])cc2)C[C@H]2[C@@H]3CC=C4C[C@@H](OC(C)=O)CC[C@]4(C)[C@H]3CC[C@]12C (some centres not stated) | inactive: > 100 µM
20 | O=C(ON=c1c2ccccc2ccc2ccccc12)c1ccccc1 | inactive: 36.6 µM
21 | O=S1(=O)C(=C(c2ccccc2)c2ccccc2)S(=O)(=O)c2ccccc21 | inactive: > 100 µM
22 | C=CCN(N=O)C(=O)NCCCCC(NC(C)=O)C(=O)NCc1ccccc1 (configuration not stated) | inactive: > 100 µM

Row | Compound | GI50
23 | c1ccc(C2=NOC3C4CCC(C4)C23)cc1 (configuration not stated) | inactive: > 100 µM
24 | CN/N=C(\C)CC(=O)Nc1cccc(Cl)c1C | inactive: > 100 µM
25 | CN(C)CCNC(=O)c1cccc2nc(-c3ccccc3)oc12 | inactive: 36.2 µM
26 | O=C1COc2cc3c(cc2N1)SCCC(=O)N3 | inactive: > 100 µM
27 | COc1cc([C@@H]2C3C(=O)c4ccccc4C3[C@@H](c3cc(OC)c(OC)c(OC)c3)C23Cc2ccccc2C3=O)cc(OC)c1OC (some centres not stated) | inactive: 89.5 µM
28 | O=C(Nc1ccc(Br)cc1)C(=O)C(C(=O)c1ccccc1F)C1OC(=O)c2ccccc21 (configuration not stated) | inactive: 29.2 µM
29 | CCNC(=O)O/N=C1\CCC2[C@@H]3CC=C4C[C@@H](OC(=O)NCC)CC[C@]4(C)C3CC[C@]12C (some centres not stated) | inactive: 2.62 µM
30 | COc1cc(/C=C2\Sc3scc(-c4cccc([N+](=O)[O-])c4)[n+]3C2=O)cc(OC)c1OC | inactive: 24.9 µM
31 | COC(=O)/C=C1/OC(c2ccccc2)=C(C)C1=O | inactive: 17.7 µM
32 | Nc1nc(Cl)cc(NCC2(CO)CCCCC2)n1 | inactive: > 100 µM
33 | COc1cc(C)cc2c1c(=O)c1ccccc1n2C | inactive: 49.4 µM
34 | C/C=C1\CN2CCc3c([nH]c4ccccc34)C2C=C1CCO (configuration not stated) | inactive: > 340 µM
35 | NC(=S)N/N=C1\C(=O)Nc2c(Cl)cc(Cl)cc21 | inactive: 32 µM
36 | C[C@]12CCc3nn(-c4ccccc4)nc3C1CC[C@@H]1C2CC[C@]2(C)C(=O)CCC12 (some centres not stated) | inactive: > 100 µM
37 | CSc1ccc(NC(=O)C2CCCCC2C(=O)O)cc1 (configuration not stated) | inactive: > 100 µM
38 | S=c1sc2c(s1)SCCCCSCCCCSc1sc(=S)sc1SCCCCSCCCCS2 | inactive: > 100 µM
39 | Cc1ccc([N+](=O)[O-])cc1S(=O)(=O)Nc1ccc(C2=NN(C(=O)c3ccccc3)C(c3ccccc3O)C2)cc1 (configuration not stated) | inactive: 28.8 µM
40 | CCOc1ccc([Se][Se]c2ccc(OCC)cc2)cc1 | inactive: > 100 µM
41 | COC(=O)C1=C(O)C(C(=O)OC)[C@@]2(O)[C@@H](C(=O)OC)C(c3ccc(OC(=O)/C(=C/c4ccc(Cl)cc4)c4ccc(Cl)cc4)cc3)C[C@@H]1[C@@H]2C(=O)OC (some centres not stated) | inactive: 54.6 µM
42 | Cc1ccc(S(=O)(=O)Oc2cc(-c3ccccc3)nc3ccccc23)cc1 | inactive: 3.57 µM
43 | C/C(=N/OC(=O)c1cccc2c(=O)c3ccccc3[nH]c12)[C@H]1CC[C@H]2[C@@H]3CCC4=C/C(=N/OC(=O)c5cccc6c(=O)c7ccccc7[nH]c56)CC[C@]4(C)[C@H]3CC[C@]12C | inactive: 19.4 µM
44 | O=C1c2cccc3cc4ccccc4c(c23)C(=O)N1CCCNCCNCCCN1C(=O)c2cccc3cc4ccccc4c(c23)C1=O | active: 0.0262 µM

Row | Compound | GI50
45 | Cc1ccc(OCC2OC(n3cnc4c(N(C)C)nc(Br)nc43)CC2Oc2ccc(C)cc2)cc1 (configuration not stated) | inactive: > 100 µM
46 | COC(=O)C1(Cc2ccccc2C)Cc2ccc(C)cc2C1=O (configuration not stated) | inactive: 61.4 µM
47 | C[C@]12CCc3nonc3C1CC[C@@H]1C2CC[C@]2(C)C(=O)/C(=N\O)CC12 (some centres not stated) | inactive: > 100 µM
48 | CN(C)Cc1cc(/N=N/c2ccc(Cl)cc2)ccc1OC(=O)c1ccccc1 | inactive: 18.1 µM
49 | O=C(CC(C(=O)O)N1CCOCC1)c1ccccc1 (configuration not stated) | inactive: > 100 µM
50 | CC1(c2cccc(Cl)c2)CC(c2cccc(Cl)c2)=C(C#N)C(=C(C#N)C#N)N1 (configuration not stated) | inactive: 19.3 µM
51 | COC(=O)c1cccn1C(=O)n1cccc1 | inactive: > 100 µM
52 | CC(=O)OCC1OC(n2c(=O)[nH]c(=O)c3nn[nH]c32)C(OC(C)=O)C(OC(C)=O)C1OC(C)=O (configuration not stated) | inactive: > 100 µM
53 | O=C1O[C@@H](c2ccccc2)C[C@H]1CN1CCOCC1 | inactive: > 100 µM
54 | Cc1cc(NC(=O)NC(=O)c2ccccc2NC(=O)CN)ccc1Oc1ncc(Br)cn1 | inactive: 1.33 µM
55 | O=C(Nc1sccc1S(=O)(=O)c1ccc(Cl)cc1)C(F)(F)F | inactive: 23.5 µM
56 | O=C(COc1ccc(/C=C/C(=O)c2ccc(Cl)cc2)cc1)Nc1c(Cl)cccc1Cl | inactive: > 100 µM
57 | NS(=O)(=O)c1ccc(NC(=O)Nc2cccc3ccccc23)cc1 | inactive: 45.8 µM
58 | O=C(O)CNS(=O)(=O)c1ccc(NC(=O)c2ccccc2[N+](=O)[O-])cc1 | inactive: > 100 µM
59 | C#Cc1cc(Br)c(OC(=O)C(C)(C)C)c(-c2cc(C#C)cc(Br)c2OC(=O)C(C)(C)C)c1 | inactive: 31.1 µM
60 | O=C(CNc1nccs1)Nn1cnc2ccc(S(=O)(=O)Nc3nccs3)cc2c1=O | inactive: > 100 µM
61 | O=C(NNCC(O)COc1ccccc1)c1ccccc1 (configuration not stated) | inactive: > 100 µM
62 | CC(=O)NCCC1CNc2ccccc21 (configuration not stated) | inactive: > 100 µM
63 | CCC(=O)C(CCN1CCC(N2C(=O)C(CCC#N)c3ccccc32)CC1)(c1ccccc1)c1ccccc1 (configuration not stated) | inactive: 18.4 µM
64 | O=C1c2ccccc2-c2nnc(-c3ccc(Cl)cc3)cc21 | inactive: > 10 µM
65 | CC(Cl)(/C=C/Cl)C(Cl)/C=C/C(Cl)(CCl)CBr (configuration not stated) | inactive: 11.7 µM
66 | CC1(C)N=C(N)N=C(N)N1c1cccc(OCCOc2ccc([N+](=O)[O-])cc2)c1 | inactive: > 100 µM

Row | Compound | GI50
67 | CCOc1ccc2c(ccc(/C=C/c3cc(C)c4cccnc4c3O)[n+]2C)c1 | inactive: 1.26 µM
68 | COc1ccc2c(-c3ccc(O)cc3)c(Oc3ccccc3)c(=O)oc2c1 | inactive: 5.92 µM
69 | COc1ccc(CC2NCCc3cc(OC)c(OC)cc32)cc1Br (configuration not stated) | inactive: 49.5 µM
70 | O=[N+]([O-])c1ccc2c(c1)OCCOCCOc1ccc([N+](=O)[O-])cc1OCCOCCO2 | inactive: > 100 µM
71 | COC(=O)C(CCCCCCCC(C(=O)OC)C1=Nc2nnc(N)n2C1=O)C1=Nc2nnc(N)n2C1=O (configuration not stated) | inactive: > 100 µM
72 | CN(C(=O)c1ccc(OCCCC(=O)O)c(Cl)c1Cl)C1CCCC1 | inactive: > 100 µM
73 | O=[N+]([O-])c1ccc(NC(=S)Nc2ccccn2)cc1 | inactive: 33.8 µM
74 | COc1cc(C(=O)O)cc2c1[nH]c1ccccc12 [MUKOEIC ACID] | inactive: > 25 µM
75 | COC[C@@H]1[C@H]2OC(C)(C)O[C@H]2C(=O)N1C(=O)c1ccc(OC)cc1 | inactive: > 100 µM
76 | COC(=O)CCc1cc(OC)c(O)c(C(Cc2ccc(OC)c(OC)c2)C(=O)OC)c1 (configuration not stated) | inactive: > 100 µM
77 | COc1cc(-c2cc(O)c(-c3ccc4ccccc4n3)c(O)n2)cc(OC)c1OC | inactive: > 69.5 µM
78 | CSC1=N/C(=C\c2ccco2)C(=O)N1CN1CCCCC1 | inactive: > 100 µM
79 | CC1=NN(C(=O)c2ccncc2)C(=O)C1 | inactive: > 100 µM
80 | CC(C)(C)c1cc(Cc2ccc([N+](C)(C)C)cc2)c(O)c(C(C)(C)C)c1 | inactive: 19.3 µM
81 | Nc1ncnc2c1N=C(c1ccccc1)CC(c1ccccc1)N2 (configuration not stated) | inactive: > 100 µM
82 | O=C(CC(=O)Nc1cccc(C(=O)O)c1)Nc1cccc(C(=O)O)c1 | inactive: > 100 µM
83 | CCOC(=O)C(NC(=O)NC(C(=O)OCC)C(=O)OCC)C(=O)OCC | inactive: > 100 µM
84 | COc1cc2c(cc1C)NC(=O)/C2=C/c1c(Cl)[nH]c2ccccc12 | inactive: 13 µM
85 | C/C(=N\NC(=O)C[n+]1ccccc1)c1sc(-c2nc(C)c(/C(C)=N/NC(=O)C[n+]3ccccc3)s2)nc1C | inactive: > 100 µM
86 | COc1ccc(O)cc1C=O | inactive: > 100 µM
87 | COP(=O)(C(/C=C/c1ccccc1)OC(C)=O)[C@@H]1CCCC[C@H]1N(CC(C)(C)C)C(C)=O (some centres not stated) | inactive: 23.4 µM
